{"source": "paper PMC12136788", "binders": {"B1": {"name": "chr2:134423880:134423881:-_ENSMUSG00000034723_ENSMUST00000038228|mus_mus|motif|central (ssRNA)", "RNA": "GGGAGUUCUACAGUCCGACGAUCUUUCUAGCCUCAAGAGAGUGCUGGGGAGCUGUGGUACCUGAUGUUUCUGACCUGACGGAAACACAUGCUUAACAACGACGGCAAAGACUUCCUGCACUUUAAGGAUGCUCUGGUUUUGCUCAACAGAGGAUUGAGCAUCA"}, "B2": {"name": "chr1:95368729:95368730:-_ENSG00000117519_ENST00000538964|hu_mus|FALSE|FALSE (ssRNA)", "RNA": "GGGAGUUCUACAGUCCGACGAUCCAACUGGGGCCAAUUUAGUGAGGAUUCGUUGACUUUCUUCACAGAGCCUGGCUGUAGCUUGUUUAUGAGUUCGCACAAUAUGAUGCCGUCCUUCAGCCCCAGCUGGAAGUUGGUGCCAAUCAACAGAGGAUUGAGCAUCA"}, "B3": {"name": "34984249_34984737_613_CDS_ENSMUSG00000040356_ENSMUST00000046022|mouse|control|control (ssRNA)", "RNA": "GGGAGUUCUACAGUCCGACGAUCUGGCACAGGAGCUGGAUGAUCUUUGGGGGCAAAAUCCACCCCUUUCUUGAAGCCAGGUGGGACAGUGAGAAGAUCUUUCUCAAAGUCUAUCUCCUCCUCAGCUUCCUCCCGAGUAUGCAGCAACAGAGGAUUGAGCAUCA"}, "B4": {"name": "37285161_37285281_333_CDS_ENSMUSG00000066798_ENSMUST00000053098|mouse|control|control (ssRNA)", "RNA": "GGGAGUUCUACAGUCCGACGAUCUCCAGUAUAGCAGGACAACAGCAACUUCCAGCCUACUUCUGCACUCUGUAGAAUGGUGAUUCUGACAUGUUUUGACUGUGUGAGUAAAAACUGAUCUCUCAUGAAAGUGGAGCAAGCAGCCAACAGAGGAUUGAGCAUCA"}, "B5": {"name": "chr6:41757443:41757444:+_ENSG00000214736_ENST00000398881|hu_mus|hu_hu_hu_mus_False|48_78 (ssRNA)", "RNA": "GGGAGUUCUACAGUCCGACGAUCGAACCGUGCAGAGGCAACAUCUCAGCCGACACUGUGGACUCAAGGGGCAGUGGGGGGGGGUUCAGGGAAGGGGAGGGAGUCAACUUCAGCUGCCACUCAGGUAGGAUCUUGUGGUCACAGCAACAGAGGAUUGAGCAUCA"}, "B6": {"name": "27834996_27842404_729_3pUTR_ENSMUSG00000022263_ENSMUST00000090247|mouse|control|control (ssRNA)", "RNA": "GGGAGUUCUACAGUCCGACGAUCUGCAGGAUCUUCAGCAGCGGCUUGAUGGAGUCCCACUUGGAGCCGCGCAUGUCCACAAUCACUGUGAACCCUCGCUUGCAGACUUCCUCACUGGGAAUGCAGGCUAAAUAGGAAAUGAGCCAACAGAGGAUUGAGCAUCA"}, "B7": {"name": "chr4:140556289:140556290:+_ENSMUSG00000036622_ENSMUST00000037055|mus_mus|FALSE|FALSE (ssRNA)", "RNA": "GGGAGUUCUACAGUCCGACGAUCGAUGGAGCUCACCAGGCCCCCUUUGGCUGUGCAGAACCCUGUCCGAGUCACCACUGCUAGCACACGGGGUCCCACGUAGGCUCGGGCCUGCAGAAUGAGGGUGCCACAGAAGAGGGUGUGCAACAGAGGAUUGAGCAUCA"}, "B8": {"name": "chr1:225611761:225611762:-_ENSG00000143815_ENST00000272163|hu_mus|hu_hu_hu_mus_True|78_88 (ssRNA)", "RNA": "GGGAGUUCUACAGUCCGACGAUCCCAGGCCAUCGGCCUCUGACCACUUCACCAUCGGCAAAUUUCCUACUUGGCAUUUUCUAAAAUUAGUCUGGCCGCGCUCCGGCGGGAACUCCAGCCACUCCAGGACAGUCACCAGCAGCCCAACAGAGGAUUGAGCAUCA"}, "B9": {"name": "chr19:7360422:7360423:-_ENSMUSG00000024969_ENSMUST00000032557|mus_hu|FALSE|FALSE (ssRNA)", "RNA": "GGGAGUUCUACAGUCCGACGAUCAUAAGGGGGACUGCCACAGAAGGUGUCCAGCUUGUUCCCAAAGGUGAAUUCAUUGCUGAAGCCAAAGUCUGCAAUCUUGAUGUUCAUAUCAGCAUCCAAGAGCAGGUUUUCUGCCUUUAACAACAGAGGAUUGAGCAUCA"}, "B10": {"name": "chr5:37680062:37680063:+_ENSMUSG00000029121_ENSMUST00000031004|mus_hu|mus_mus_mus_hu_False|8_58 (ssRNA)", "RNA": "GGGAGUUCUACAGUCCGACGAUCUUUGGGUGUAGCUGGUACCUCGUACACAGGACCGUCAUACAUGCCCCUGGAAACACUAUGCAAUCCAAAAACCUUAUUCCUGAUUUUGACGCGCUGGUACAGGUGCUCUGGGAACGCCUUCAACAGAGGAUUGAGCAUCA"}, "B11": {"name": "chr17:87533601:87533602:+_ENSMUSG00000037104_ENSMUST00000041369|mus_mus|motif|central (ssRNA)", "RNA": "GGGAGUUCUACAGUCCGACGAUCUGUUGAGUGUGGGCUCACAGGGGCGGUAUGCUGUUUAAUCAAAUGCCACUUUUGUGCGGAAUCCGAGCCAGCAGGAAAAGGGCAUUUCUCCAGCAUUAAUUCAGAAAGAUGUAUUUUUCUCAACAGAGGAUUGAGCAUCA"}, "B12": {"name": "chr11:110355629:110355630:+_ENSMUSG00000020623_ENSMUST00000020949|mus_mus|motif|central (ssRNA)", "RNA": "GGGAGUUCUACAGUCCGACGAUCAUGGAUAACAGACAGCUUACUGUGUAAAUGUUCUAACGCUUUUACAAUAGAAACUGCGGUCUUUCCUAAGAUAUCCUCUGGAAUUGUUUGGCCUUUAUCAAUAACUUGUUUGUAGAAUUUCAACAGAGGAUUGAGCAUCA"}, "B13": {"name": "chr7:151048522:151048523:+_ENSG00000013374_ENST00000566856|hu_mus|hu_hu_hu_mus_True|1_1 (ssRNA)", "RNA": "GGGAGUUCUACAGUCCGACGAUCCUGUUUCUUAUUUAUUACGAUCUUGAUGUAAUUUUCUUGAAAUCCGAAAGUUUCAGCUAUUUGACACCUCAGGUCUCUACCAGUGACAUGCAAGCGGGUCUCCAACAAGCUUUUCCUAUCCAACAGAGGAUUGAGCAUCA"}, "B14": {"name": "chr1:129365822:129365823:+_ENSMUSG00000036155_ENSMUST00000038361|mus_mus|FALSE|FALSE (ssRNA)", "RNA": "GGGAGUUCUACAGUCCGACGAUCGUUUAAGAUGGCUUUUACUGCAUCUUCUACUUCCUCUCGGUUAUUGAGAUCCACAGUCCAGACGUGUGGCCGGCCGAUGAAGACUUCUGCGUAAGGAUGCUGGGAUGUCAGCUCUCUCAGCAACAGAGGAUUGAGCAUCA"}, "B15": {"name": "chr8:67197462:67197463:-_ENSMUSG00000031604_ENSMUST00000034015|mus_hu|FALSE|FALSE (ssRNA)", "RNA": "GGGAGUUCUACAGUCCGACGAUCCUGAAAUGACCAGUAUAUAUCUAAAAGAUUUAAAGACCCAAUGUGAACUUCAGGCCUAUGGUUUUACUGGGAGAAAAGCCAUAGAUUAAUACUUCUAGUAUCCAAAACCUUCUUGGAAGCCAACAGAGGAUUGAGCAUCA"}, "B16": {"name": "chr1:66488090:66488091:+_ENSMUSG00000015222_ENSMUST00000077355|mus_mus|FALSE|FALSE (ssRNA)", "RNA": "GGGAGUUCUACAGUCCGACGAUCCACCUUUCAUUUCUAGAUCAGCGUAUGUGUAUCCCCACAAAAGUGGUGUCCAAAAAGCUUAAUUUGAGUCAUUAUCUUAAGAGAGUAGGUAAGGUGAGCUCCAUCCCACAUUCCCAUAAGCAACAGAGGAUUGAGCAUCA"}, "B17": {"name": "chr17:65740002:65740003:+_ENSG00000130935_ENST00000581375|hu_hu|hu_hu_hu_mus_False|1_78 (ssRNA)", "RNA": "GGGAGUUCUACAGUCCGACGAUCAACAAAUCUUUCUUCCCUGGACGAACAGGAAGACAUAAAAGAGAAAAAAUAUAUAUCCAUCAAGUUAGGUGUGGUGGCCACACCUUUACUCCCAGCACUUUGGGAGGUGGAUCCUCUAUUCAACAGAGGAUUGAGCAUCA"}, "B18": {"name": "chr13:100200628:100200629:-_ENSMUSG00000052727_ENSMUST00000064762|perfect_dup|motif|central (ssRNA)", "RNA": "GGGAGUUCUACAGUCCGACGAUCGUCACCAGGUGUCUUCCCUCCACUGUCCUUCUCCAGGCCAGGUGUGGACAAAUCUCGGUUCAAGGCUAGAUGGUGUUGCAUUGUAUCGAAUAACACUGAGGCACGGAAGCCAUAGGGCUCCAACAGAGGAUUGAGCAUCA"}, "B19": {"name": "100650496_100650616_7947_3pUTR_ENSMUSG00000023032_ENSMUST00000023776|mouse|control|control (ssRNA)", "RNA": "GGGAGUUCUACAGUCCGACGAUCGAAGGUUUAUACAGUUUCUAGGAAUCGGAAAUUUAUCUCAGAUAAAACAAAGUGUGCAAUGGGUGAAAUGUGUGGGACCAGAAGGUCUAACAGGAAAGCUAAGACCUGAUGUGGCUGAUCCAACAGAGGAUUGAGCAUCA"}, "B20": {"name": "chr16:45382771:45382772:-_ENSMUSG00000022661_ENSMUST00000163230|mus_mus|motif|central (ssRNA)", "RNA": "GGGAGUUCUACAGUCCGACGAUCGAGAGUGUUAUUGUGGGCCCAAUGGAUAGGGAGAGCAUGCUUUUGUAAAGAUGUGAACGGCUCACUAAGACUAACAAUAUUGCCUAAGUGCUAUAAAAAUAAGUUAAAUGGACACAUUACCAACAGAGGAUUGAGCAUCA"}, "B21": {"name": "chr10:110404880:110404881:-_ENSMUSG00000035798_ENSMUST00000041723|mus_hu|FALSE|FALSE (ssRNA)", "RNA": "GGGAGUUCUACAGUCCGACGAUCGUUUUUGUGAUACUUGUCACCAAGGUUAACUGAAACAUUGAAUGUUAAAAGCAAUCUAGUUGGAUCCACACUAUGUGUUCUAUAUGCUGCCCACAUUAAAGGCGUCAUUCCAUUCUGAUCCAACAGAGGAUUGAGCAUCA"}, "B22": {"name": "chr2:136540380:136540381:+_ENSG00000144224_ENST00000272638|hu_mus|FALSE|FALSE (ssRNA)", "RNA": "GGGAGUUCUACAGUCCGACGAUCGGAGUUUCCAUUCCAAGUGUUGUUCUCGUCUUCACCGUCAUCUUGAGUCCUCAGUCUGUAUAUUUUCCCUUCUUUUUUAAAGUCUUCCCCUCGUUUUUCCAGCAUUCUUUUUCGGACUGGCAACAGAGGAUUGAGCAUCA"}}, "note": "The other results are listed elsewhere or left out."}
{"molecular_target": "T1, UNK ZnF1-3 (human, UniProt Q9C0B0 31-174)", "T1 sequence": "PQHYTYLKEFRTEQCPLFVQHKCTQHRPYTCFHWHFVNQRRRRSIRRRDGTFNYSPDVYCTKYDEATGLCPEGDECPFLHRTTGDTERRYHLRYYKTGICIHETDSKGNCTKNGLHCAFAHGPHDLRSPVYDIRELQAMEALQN", "test": "nsRBNS (natural sequence RNA bind-n-seq); RBNS binding buffer (assumed for nsRBNS): 25 mM Tris pH 7.5, 150 mM KCl, 3 mM MgCl2, 0.01% Triton X-100, 500 ug/ml BSA, 20 U/ml SUPERase-In, 4 C; UNK is unkempt and MSI1 is Musashi-1; names of the RNAs are library labels; protein concentration not given here; high values mean tight binding", "units": {"binding signal": "enrichment R"}}
{"binder": "B1", "binding signal": 0.624}
{"binder": "B2", "binding signal": 0.608}
{"binder": "B3", "binding signal": 0.76}
{"binder": "B4", "binding signal": 0.828}
{"binder": "B5", "binding signal": 2.24}
{"binder": "B6", "binding signal": 0.912}
{"binder": "B7", "binding signal": 1.5}
{"binder": "B8", "binding signal": 1.23}
{"binder": "B9", "binding signal": 0.562}
{"binder": "B10", "binding signal": 0.718}
{"binder": "B11", "binding signal": 0.512}
{"binder": "B12", "binding signal": 0.491}
{"binder": "B13", "binding signal": 0.759}
{"binder": "B14", "binding signal": 0.574}
{"binder": "B15", "binding signal": 1.05}
{"binder": "B16", "binding signal": 0.686}
{"binder": "B17", "binding signal": 1.1}
{"binder": "B18", "binding signal": 1.1}
{"binder": "B19", "binding signal": 1.82}
{"binder": "B20", "binding signal": 2.47}
{"binder": "B21", "binding signal": 0.636}
{"binder": "B22", "binding signal": 0.389}
